PubChem BioAssay AID488969 (Vanderbilt High Throughput Screening Facility, 2010)
In all, about 110,000 compounds were measured (“z-score”: median about -0.1, highest 2% from about 2 on). The list shows a part of the results. Active and inactive are the calls of the source.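 How the source made its calls: active means z-score in the third read window above 3 or below -3; inactive means the rest.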

Target: Metabotropic glutamate receptor 8 (Rattus norvegicus) (UniProt P70579)
Experiment: rat mGluR8 modulators via GIRK flux, primary screen, cell-based, thallium flux, HTS (AID 488969)
Conditions: HEK293 rat mGluR8, GIRK (G protein-gated inwardly rectifying potassium channel) thallium flux, FluoZin2; at 10 µM; stronger effect = higher value; submaximal glutamate (EC20) added with thallium

Chain of UniProt P70579 (P70579 whole entry, looked up): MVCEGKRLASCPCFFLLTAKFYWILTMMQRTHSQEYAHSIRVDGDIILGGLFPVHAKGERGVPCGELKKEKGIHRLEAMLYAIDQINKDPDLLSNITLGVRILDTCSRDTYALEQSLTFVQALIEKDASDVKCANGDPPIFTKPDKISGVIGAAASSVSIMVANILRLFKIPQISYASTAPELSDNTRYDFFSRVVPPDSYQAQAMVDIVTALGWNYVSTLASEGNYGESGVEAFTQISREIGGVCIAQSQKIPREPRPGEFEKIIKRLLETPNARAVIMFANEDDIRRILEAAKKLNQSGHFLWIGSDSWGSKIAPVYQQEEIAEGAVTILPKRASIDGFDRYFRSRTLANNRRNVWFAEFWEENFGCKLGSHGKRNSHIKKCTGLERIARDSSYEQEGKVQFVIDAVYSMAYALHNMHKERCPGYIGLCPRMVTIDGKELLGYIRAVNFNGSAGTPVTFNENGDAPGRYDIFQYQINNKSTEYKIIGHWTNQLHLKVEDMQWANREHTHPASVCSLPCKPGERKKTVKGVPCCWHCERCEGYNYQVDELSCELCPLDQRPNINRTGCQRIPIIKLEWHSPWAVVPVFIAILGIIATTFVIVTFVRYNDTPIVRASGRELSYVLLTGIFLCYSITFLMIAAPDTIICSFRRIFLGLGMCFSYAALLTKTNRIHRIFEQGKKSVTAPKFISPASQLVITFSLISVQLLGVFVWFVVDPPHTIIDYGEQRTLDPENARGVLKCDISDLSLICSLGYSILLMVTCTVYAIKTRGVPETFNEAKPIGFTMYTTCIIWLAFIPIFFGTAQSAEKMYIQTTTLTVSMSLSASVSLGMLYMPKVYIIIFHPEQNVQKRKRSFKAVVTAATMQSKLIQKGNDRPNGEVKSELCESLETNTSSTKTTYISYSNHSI

Going from `N#CC1=C(N)NC(SCc2ccc(Br)cc2)=C(C#N)C12CCCCC2` to `O=C1c2ccccc2NC(c2cccc(Cl)c2)N1N=C1CCCCCC1` (stereo not given), the z-score falls from 0.18 to -0.359.

Compared with `Cc1ccc(C)c2[nH]c(=O)c(CCNS(=O)(=O)c3ccccc3)cc12`, `CCN(CC)Cc1c(-c2ccccc2)[nH]c2ccc(C)cc2c1=O` is lower in z-score: 0.0635 for the first, 0.0208 for the second.

First: Cc1cc(-c2ccccc2)n(-c2ccc(C(=O)NC(C)C)cc2)n1
Second: CCOc1ccc(-n2cc(-c3ccccc3)c3c(SC(C)C(=O)OC)ncnc32)cc1 (stereo not given)
The z-score of the first is lower: -0.189 for the first, -0.101 for the second.

Compared with `COC(=O)Nc1ccc2c(c1)N(C(=O)CCN1CCN3CCCC3C1)c1ccccc1S2` (stereo not given), `O=C(CN1CCN(c2ccccc2F)CC1)c1c[nH]c2ccc(F)cc12` is higher in z-score: -0.481 for the first, 0.575 for the second.

Going from `O=C(NCCCn1ccnc1)/C(=C\c1cccs1)NC(=O)c1ccco1` to `O=C(Nc1ccc(NC(=S)NC(=O)c2cccs2)cc1)c1ccccc1`, the z-score rises from -0.345 to -0.193.

Compared with `C#CCn1c(S(=O)(=O)Cc2ccccc2Cl)nc(-c2ccccc2)c1-c1ccccc1`, `O=C1S/C(=C/c2ccccc2)C(=O)N1CC(O)Cn1c2ccccc2c2ccccc21` (stereo not given) is higher in z-score: -0.358 for the first, 0.716 for the second.

First: CCC(CC)C(=O)Nc1ccc(Cl)c(Cl)c1
Second: O=C(COC(=O)c1ccncc1)Nc1cc(Cl)ccc1Cl
The z-score of the first is lower: -0.495 for the first, 0.00286 for the second.

First: CCN(CCNC(=O)Cn1c(=O)sc2ccccc21)c1ccccc1
Second: CCn1c(CNC(=O)c2ccccc2)nc2ccccc21
The z-score of the first is higher: -0.053 for the first, -0.178 for the second.

Compared with `CCOC(=O)c1nc(Nc2ccccc2)c2ccccc2n1`, `COc1ccccc1NC(=O)Cn1cnc2c(cnn2-c2ccccc2)c1=O` is lower in z-score: -0.162 for the first, -0.593 for the second.

Going from `COc1cc(NC(=S)NCCSc2ccc(C)cc2)cc(OC)c1` to `Cc1cc(C)cc(NC(=S)NCc2ccc(F)cc2)c1`, the z-score rises from -0.204 to 0.26.

Going from `Cc1ccc(Cn2nc(C)c(NC(=O)CSc3nc4c(c(C(F)(F)F)n3)CCc3ccccc3-4)c2C)cc1` to `CCn1cnc2cc(NCc3ccc(C)cc3)ccc21`, the z-score rises from -0.26 to -0.203.

Compared with `O/N=C/c1cc(Cl)ccc1OCc1cccc2ccccc12`, `Cc1cccc(C(=O)O/N=C/c2c(Cl)n(C)c3ccccc23)c1` is lower in z-score: 2.76 for the first, 0.132 for the second.

Going from `O=C(CCC1CCCC1)Nc1ccon1` to `CS(=O)(=O)N(CC(=O)NCCSC1CCCCC1)c1cccc(F)c1`, the z-score falls from -0.0106 to -0.0553.

First: Cc1[nH]nc(-c2ccc(OCc3cnn(-c4ccccc4)c3)cc2O)c1Oc1ccc(Cl)cc1
Second: CCOc1ccc(C2=NNC(c3cccs3)=Nc3ccc(OCC)cc32)cc1
The z-score of the first is higher: -0.0976 for the first, -0.166 for the second.

Going from `N/C(=N\OC(=O)COc1ccccc1)c1ccccn1` to `O=C(N/N=C/C=C\c1ccccc1[N+](=O)[O-])c1ccccn1`, the z-score falls from 0.0424 to -0.0802.

First: CCCCc1nc(Cl)c(C#N)c2c1CCCC2
Second: Cc1ccc(C(=O)CSc2ncnc3sc4c(c23)CCCC4)cc1
The z-score of the first is lower: -0.174 for the first, 1.34 for the second.

Going from `COc1ccc(-c2nc(Cc3ccc(Cl)cc3)no2)cc1OC` to `CCC1=NC(c2ccc(OC)c(OC)c2)N(O)C1(C)C` (stereo not given), the z-score rises from -0.563 to -0.349.

Compared with `Cc1ccc(S(=O)(=O)NCCCNC(=O)N2CCOCC2)cc1`, `COc1ccc(S(=O)(=O)N2CCCC(C(=O)N3CCOCC3)C2)cc1C` (stereo not given) is higher in z-score: -0.248 for the first, -0.0151 for the second.

Going from `Cc1cc(NC(=O)CC(C)(C)C)nc2c1c(=O)oc1ccccc12` to `Cc1ccc2oc(=O)c3cnn(CC(=O)N4CCCc5ccccc54)c3c2c1`, the z-score falls from 0.671 to -0.255.

Compared with `Cc1nnc(NC(=O)CSc2nnc(Cc3ccccc3)n2-c2ccccc2)s1`, `OCCSc1nnc(Nc2ccccc2)s1` is higher in z-score: -0.123 for the first, 0.0141 for the second.

Compared with `O=C(CSc1nnc2scc(-c3ccc(Cl)cc3)n12)NCc1ccc2c(c1)OCO2`, `O=C(CSc1nnc(CNC(=O)c2ccccc2F)o1)c1ccc(Cl)cc1` is higher in z-score: -0.42 for the first, -0.177 for the second.

First: Cc1cccc(NC(=S)/N=C(\N)Nc2nc(C)c3ccc(C)cc3n2)c1
Second: CSc1nnc2c(n1)c(C)nn2-c1cccc(C)c1
The z-score of the first is lower: -0.215 for the first, 0.3 for the second.

Compared with `COc1ccc(CC(=S)N2CCOCC2)cc1F`, `COc1ccc(OC)c(NC(=S)NCCCN2CCOCC2)c1` is higher in z-score: -1.4 for the first, 0.347 for the second.

First: Cc1nn(C(C)(C)C)c(OC(=O)c2ccco2)c1Sc1ccccc1
Second: CSc1ccccc1NC(=O)c1c(C)noc1C
The z-score of the first is higher: -0.112 for the first, -0.561 for the second.

Going from `[N-]=[N+]=CC(=O)CC(c1ccccc1)N1C(=O)c2ccccc2C1=O` (stereo not given) to `CCCCC[n+]1ccn(C2=C([O-])c3ccccc3C(=O)/C2=N\S(=O)(=O)c2ccccc2)c1`, the z-score falls from 0.692 to -0.188.

Going from `COC1(OC)C(/C=C/c2ccc(C)cc2)C(C#N)(C#N)C1(OC)OC` (stereo not given) to `COc1ccc(/C(O)=C2/C(=O)C(=O)N(CCN(C)C)C2c2ccc(C)cc2)cc1Cl` (stereo not given), the z-score rises from -0.364 to -0.336.

Going from `CN(C(=O)c1ccccc1)c1ccc(OCC(=O)NC2CCS(=O)(=O)C2)cc1` (stereo not given) to `COc1ccc(S(=O)(=O)N(C)CC(=O)Nc2ccccc2C(F)(F)F)cc1`, the z-score rises from 0.202 to 0.34.

Compared with `COC(=O)c1[nH]c(C)c(/C(O)=C2\C(=O)C(=O)N(CCN(C)C)C2c2cccs2)c1C` (stereo not given), `CN=C1SC(CC(=O)Nc2sc(C)c(C)c2C(=O)OC)C(=O)N1C` (stereo not given) is lower in z-score: -0.364 for the first, -0.51 for the second.

Going from `CC(C)OC(=O)CCCN1C(=O)c2ccc(N)cc2C1=O` to `CCCn1c(N)c(C(=O)CSc2nnnn2-c2ccc(O)cc2)c(=O)n(C)c1=O`, the z-score rises from -0.888 to -0.148.

First: O=C(N/N=C\c1ccco1)Nc1cccc(Cl)c1
Second: O=C(Nc1ccc(Cl)cc1C(=O)N1CCOCC1)c1ccco1
The z-score of the first is lower: -0.392 for the first, -0.00242 for the second.

Compared with `Cc1ccc(/C=N/N2C(=O)C3C(C2=O)C2C=CC3C23CC3)o1` (stereo not given), `CC1CCCCN1C(=O)Cn1c(=O)n(CCC(=O)NCc2ccco2)c(=O)c2sccc21` (stereo not given) is lower in z-score: -0.147 for the first, -0.686 for the second.

First: O=C1N/C(=N\N=C\c2ccc3ncccc3c2)SC1Cc1ccc(SC(F)F)cc1 (stereo not given)
Second: COc1ccc(-c2ccnc(SCC(=O)c3ccc(Br)cc3)n2)cc1
The z-score of the first is lower: -0.253 for the first, -0.0451 for the second.

Compared with `CCCCn1c(SCC(=O)N2CC(=O)Nc3ccccc32)nnc1-c1ccoc1C`, `CC(C)CCNC(=O)NC(=O)CSc1nnc(-c2ccccc2Br)o1` is lower in z-score: -0.111 for the first, -0.569 for the second.

Compared with `CCOC(=O)C1CCN(C(C(=O)NC2CCCC2)c2ccc(C)cc2)CC1` (stereo not given), `COC(=O)C1CCN(C(=O)c2c(-c3ccccc3Cl)noc2C)CC1` is higher in z-score: -0.427 for the first, 0.00573 for the second.

First: Cc1ccc(C#N)c(SCc2cc3c(cc2Cl)OCO3)n1
Second: Cc1ccc2c(C)ccc(O)c2n1
The z-score of the first is lower: -0.345 for the first, -0.0844 for the second.

Going from `Cc1ccc(N2CC(C(=O)Oc3cccc(N4C(=O)CCC4=O)c3)CC2=O)cc1` (stereo not given) to `O=C1CCCc2c1cc(C(=O)Nc1ccc(Br)cn1)c(=O)n2-c1ccccc1`, the z-score rises from -2.47 to -0.203.

Going from `Cc1[nH][nH]c(=O)c1C(c1c(C)[nH][nH]c1=O)c1cn(Cc2ccc(Cl)c(Cl)c2)c2ccccc12` to `CNC(=S)N/N=C/c1cn(CCOc2ccc(OC)cc2)c2ccccc12`, the z-score rises from -0.275 to -0.0929.

First: COC(=O)c1ccc(/C=N/NC(=O)CC(=O)NC(C)C)cc1
Second: CCOC(=O)Nc1ccc(NC(=O)OCC)cc1
The z-score of the first is higher: -0.108 for the first, -0.381 for the second.

Going from `CCCCN(C(=O)CN1CCOCC1)c1c(N)n(CC(C)C)c(=O)[nH]c1=O` to `Cc1c(N=CN2CCOCC2)c(=O)n(C)c(=O)n1C`, the z-score rises from -0.17 to -0.0259.

Compared with `COc1ccc(C(=O)Nc2cccnc2)cc1`, `COc1ccc(C(CNC(=O)c2cc3ccccc3cc2OC)N2CCCC2)cc1` (stereo not given) is higher in z-score: 0.000698 for the first, 0.898 for the second.

Compared with `CC(C)C1=NN2C(=N)CC(=O)N=C2S1`, `CC1=Nn2c(nnc2-c2ccco2)SC1` is lower in z-score: 0.235 for the first, -0.0698 for the second.

Going from `N#Cc1c(-c2ccccc2)cc(-c2ccco2)c(C#N)c1N` to `O=C(NCCCCc1ccccc1)C12CN(Cc3ccccc3)CC1C(c1ccc([N+](=O)[O-])cc1)=NO2` (stereo not given), the z-score rises from -0.84 to 0.105.

First: COc1ccc(-c2cn3cccnc3n2)cc1NC(=O)C1CCCC1
Second: CCOc1cc(NC(=O)C2CCCCC2)c(OCC)cc1NC(=O)c1ccco1
The z-score of the first is higher: 1.23 for the first, -0.0375 for the second.

Going from `Cc1ccc2nc(/C(C#N)=N/O)[nH]c2c1` to `O=C/C(=C\Nc1ccc(Cl)cn1)c1nc2cc(Cl)ccc2o1`, the z-score rises from -0.703 to -0.0503.

First: CC1CN=C(NC2CCCCC2C)S1 (stereo not given)
Second: Clc1ccc(NC2(c3nnnn3C3CCCCC3)CCCCC2)cc1
The z-score of the first is higher: 0.0666 for the first, -0.224 for the second.

Going from `O=C(c1ccccc1)N1CCN(C(=O)C23CC4CC(CC(C4)C2)C3)CC1` to `O=C(c1cccc(Br)c1)N1CCN(C(=O)c2cccc(Br)c2)CC1`, the z-score rises from 0.736 to 0.769.

First: CCC(Sc1nc2cc(OC)c(OC)cc2c(=O)n1Cc1ccco1)C(=O)NCCOC (stereo not given)
Second: CCCN(CCC)CCCNC(=O)c1cn(CCOC)c(=O)c2c1c1ccccc1n2C
The z-score of the first is lower: -0.352 for the first, -0.165 for the second.

Compared with `C=CCN1C(=O)CSC1=Nc1ccc(O)cc1`, `C=CCOc1ccc(CNC(C)(C)CO)cc1OCC` is lower in z-score: 0.0136 for the first, -0.0196 for the second.

First: CCOC(=O)c1c(C)[nH]c(C)c1C(=O)COC(=O)CNC(=O)c1ccc(OCC)cc1
Second: Cc1ccc(Oc2cc(NC(=O)CCCn3nc(C)c([N+](=O)[O-])c3C)cc([N+](=O)[O-])c2)cc1
The z-score of the first is lower: -0.688 for the first, -0.0677 for the second.

Going from `Cc1ccc(Nc2nc(N)nc(CN3CCCCCC3)n2)cc1` to `O=C(c1ccco1)N1CCN(c2cc(=O)n(C3CCCCC3)c(=O)[nH]2)CC1`, the z-score falls from 0.0288 to -0.0284.

First: Cc1sc2ncnc(N3CCN(c4ncccn4)CC3)c2c1C
Second: COc1ccc(NC(=S)Nc2ccc(S(=O)(=O)N3CCOCC3)cc2)c(OC)c1
The z-score of the first is lower: -0.294 for the first, 0.108 for the second.

First: OC(COCC(F)(F)C(F)(F)C(F)(F)C(F)F)Cn1c2ccc(Cl)cc2c2cc(Cl)ccc21 (stereo not given)
Second: COC(=O)c1c(F)c(F)c(NCCO)c(F)c1F
The z-score of the first is lower: -0.101 for the first, 0.592 for the second.

First: COC(=O)c1ccccc1NC(=O)c1noc2c1CC(C(C)(C)C)CC2 (stereo not given)
Second: CSc1sc2ccccc2[n+]1CCCS(=O)(=O)[O-]
The z-score of the first is higher: 0.705 for the first, -0.661 for the second.

`O=C(Nc1nnc(SCc2ccc(F)cc2)s1)C1CC(=O)N(c2ccc3c(c2)OCCO3)C1` (stereo not given) was tested, and the z-score was active: 3.68.
`COC(=O)C(C)Sc1nc2c(c(=O)n(C)c(=O)n2C)n1Cc1cccc(C)c1` (stereo not given) was tested, and the z-score was active: -3.65.
`CCc1cc(C(=O)NNC(=S)Nc2cc(C)ccc2C)cs1` was tested, and the z-score was active: 6.35.
In the case of `O=C(COc1ccccc1)NC(=S)N1CCc2ccccc21`, the z-score is reported as active: 10.1.
